{
  "source": "the supplement of paper PMC10037445",
  "key": {"RAW-Dual [1]": {"tested_on": "RAW-Dual", "assay": "IRF Lucia reporter activity, fold change vs agonist alone; cytotoxicity flag (confluency mask): cytotoxic (confluency <70% of control); higher = enhanced IRF activity", "procedure,_shortened": "(§1)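 Reporter activity is given as fold change relative to agonist-alone wells. To measure it, 50 nL of library stock was pin-tooled onto RAW-Dual macrophages (50,000 cells/well, DMEM, 384-well plates), a PRR agonist followed 1 h later, and cells stayed at 37 °C, 5% CO2. Twenty hours on, supernatant was assayed for IRF (QuantiLuc luminescence) and NF-κB (QuantiBlue, 620 nm absorbance), and wells under 70% of agonist-control IncuCyte confluency in both mask sets were marked cytotoxic.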"}, "RAW-Dual [2]": {"tested_on": "RAW-Dual", "assay": "IRF Lucia reporter activity, fold change vs agonist alone; higher = enhanced IRF activity", "details": "library stock concentration (final ~1000-fold dilution): 10 mM, agonist: MPLA (TLR4) […]", "procedure,_shortened": "as §1"}, "RAW-Dual [3]": {"tested_on": "RAW-Dual", "assay": "IRF Lucia reporter activity, fold change vs agonist alone; cytotoxicity flag (confluency mask): not cytotoxic; higher = enhanced IRF activity", "procedure,_shortened": "as §1"}, "[4]": {"details": "agonist: 3'3'-cGAMP (STING) 10 ug/mL"}, "[5]": {"details": "cytotoxicity flag (confluency mask): cytotoxic (confluency <70% of control)"}, "[6]": {"details": "cytotoxicity flag (confluency mask): not cytotoxic"}},
  "note": "Values joined by “and” are separate entries in the source; they are usually repeats but may differ in a detail not shown here. Equal values may be shown once. The full ranking holds about 2,900 compounds; the median of “IRF Lucia reporter activity, fold change vs agonist alone” is about 0.9, and the highest 2% start at about 2.8. This is one part of the list.",
  "data": [
    {"smiles": "CC1CC(OC(=O)C(O)c2ccccc2)CC(C)(C)C1", "note": "(stereo not given) (library stock concentration (final ~1000-fold dilution): 10 mM)", "values": [
      {"measurement": "IRF Lucia reporter activity", "setting": "RAW-Dual [1]; [4]", "value": 1.15},
      {"measurement": "IRF Lucia reporter activity", "setting": "RAW-Dual [1]; agonist: LPS (TLR4) 0.1 ug/mL", "value": 1.04}
    ]},
    {"smiles": "CC1CC(OC(=O)C(O)c2ccccc2)CC(C)(C)C1", "note": "(stereo not given)", "values": [
      {"measurement": "IRF Lucia reporter activity", "setting": "RAW-Dual [2]; [5]", "value": 1.46}
    ]},
    {"smiles": "CN1CCC(c2c(O)cc(O)c3c(=O)cc(-c4ccccc4Cl)oc23)C(O)C1.Cl", "note": "(stereo not given) (library stock concentration (final ~1000-fold dilution): 10 mM)", "values": [
      {"measurement": "IRF Lucia reporter activity", "setting": "RAW-Dual [3]; [4]", "value": 0.986},
      {"measurement": "IRF Lucia reporter activity", "setting": "RAW-Dual [3]; agonist: LPS (TLR4) 0.1 ug/mL", "value": 0.0173}
    ]},
    {"smiles": "CN1CCC(c2c(O)cc(O)c3c(=O)cc(-c4ccccc4Cl)oc23)C(O)C1.Cl", "note": "(stereo not given)", "values": [
      {"measurement": "IRF Lucia reporter activity", "setting": "RAW-Dual [2]; [6]", "value": 0.577}
    ]},
    {"smiles": "COc1ccc(CNc2nc(N3CCCC3CO)ncc2C(=O)NCc2ncccn2)cc1Cl", "note": "(stereo not given) (library stock concentration (final ~1000-fold dilution): 10 mM)", "values": [
      {"measurement": "IRF Lucia reporter activity", "setting": "RAW-Dual [3]; [4]", "value": 1.08},
      {"measurement": "IRF Lucia reporter activity", "setting": "RAW-Dual [3]; agonist: LPS (TLR4) 0.1 ug/mL", "value": 1.24}
    ]},
    {"smiles": "COc1ccc(CNc2nc(N3CCCC3CO)ncc2C(=O)NCc2ncccn2)cc1Cl", "note": "(stereo not given)", "values": [
      {"measurement": "IRF Lucia reporter activity", "setting": "RAW-Dual [2]; [6]", "value": 1.26}
    ]},
    {"smiles": "O=C(O)c1cccnc1Nc1cccc(C(F)(F)F)c1", "note": "(library stock concentration (final ~1000-fold dilution): 10 mM)", "values": [
      {"measurement": "IRF Lucia reporter activity", "setting": "RAW-Dual [3]; [4]", "value": 1.08},
      {"measurement": "IRF Lucia reporter activity", "setting": "RAW-Dual [3]; agonist: LPS (TLR4) 0.1 ug/mL", "value": 0.998}
    ]},
    {"smiles": "O=C(O)c1cccnc1Nc1cccc(C(F)(F)F)c1", "values": [
      {"measurement": "IRF Lucia reporter activity", "setting": "RAW-Dual [2]; [6]", "value": 1.06}
    ]},
    {"smiles": "Cc1oncc1C(=O)Nc1ccc(C(F)(F)F)cc1", "note": "(library stock concentration (final ~1000-fold dilution): 10 mM)", "values": [
      {"measurement": "IRF Lucia reporter activity", "setting": "RAW-Dual [3]; [4]", "value": 1.08},
      {"measurement": "IRF Lucia reporter activity", "setting": "RAW-Dual [3]; agonist: LPS (TLR4) 0.1 ug/mL", "value": 1.39}
    ]},
    {"smiles": "Cc1oncc1C(=O)Nc1ccc(C(F)(F)F)cc1", "values": [
      {"measurement": "IRF Lucia reporter activity", "setting": "RAW-Dual [2]; [6]", "value": 1.62}
    ]},
    {"smiles": "CCn1c2ccccc2c2cc(Nc3ccnc(NCCCN4CCOCC4)n3)ccc21", "note": "(library stock concentration (final ~1000-fold dilution): 10 mM)", "values": [
      {"measurement": "IRF Lucia reporter activity", "setting": "RAW-Dual [1]; [4]", "value": 0.0499},
      {"measurement": "IRF Lucia reporter activity", "setting": "RAW-Dual [1]; agonist: LPS (TLR4) 0.1 ug/mL", "value": 0.123}
    ]},
    {"smiles": "CCn1c2ccccc2c2cc(Nc3ccnc(NCCCN4CCOCC4)n3)ccc21", "values": [
      {"measurement": "IRF Lucia reporter activity", "setting": "RAW-Dual [2]; [5]", "value": 0.0354}
    ]},
    {"smiles": "COC1CC2CCC(C)C(O)(O2)C(=O)C(=O)N2CCCCC2C(=O)OC(C(C)CC2CCC(n3cnnn3)C(OC)C2)CC(=O)C(C)C=C(C)C(O)C(OC)C(=O)C(C)CC(C)C=CC=CC=C1C", "note": "(stereo not given) (library stock concentration (final ~1000-fold dilution): 10 mM)", "values": [
      {"measurement": "IRF Lucia reporter activity", "setting": "RAW-Dual [3]; [4]", "value": 0.943},
      {"measurement": "IRF Lucia reporter activity", "setting": "RAW-Dual [3]; agonist: LPS (TLR4) 0.1 ug/mL", "value": 0.694}
    ]},
    {"smiles": "COC1CC2CCC(C)C(O)(O2)C(=O)C(=O)N2CCCCC2C(=O)OC(C(C)CC2CCC(n3cnnn3)C(OC)C2)CC(=O)C(C)C=C(C)C(O)C(OC)C(=O)C(C)CC(C)C=CC=CC=C1C", "note": "(stereo not given)", "values": [
      {"measurement": "IRF Lucia reporter activity", "setting": "RAW-Dual [2]; [6]", "value": 0.832}
    ]},
    {"smiles": "CC(C)c1ccc2oc3nc(N)c(C(=O)O)cc3c(=O)c2c1", "values": [
      {"measurement": "IRF Lucia reporter activity", "setting": "RAW-Dual [2]; [6]", "value": 0.979}
    ]},
    {"smiles": "CC(C)c1ccc2oc3nc(N)c(C(=O)O)cc3c(=O)c2c1", "note": "(library stock concentration (final ~1000-fold dilution): 10 mM)", "values": [
      {"measurement": "IRF Lucia reporter activity", "setting": "RAW-Dual [3]; [4]", "value": "0.938 and 0.336"},
      {"measurement": "IRF Lucia reporter activity", "setting": "RAW-Dual [3]; agonist: LPS (TLR4) 0.1 ug/mL", "value": "0.94 and 0.52"}
    ]},
    {"smiles": "Cc1c(NC(=O)c2cc(C(N)=O)nc3cc(F)ccc23)c(C(F)(F)F)nn1Cc1ccc(C#N)cc1", "note": "(library stock concentration (final ~1000-fold dilution): 10 mM)", "values": [
      {"measurement": "IRF Lucia reporter activity", "setting": "RAW-Dual [3]; [4]", "value": 0.754},
      {"measurement": "IRF Lucia reporter activity", "setting": "RAW-Dual [3]; agonist: LPS (TLR4) 0.1 ug/mL", "value": 1.2}
    ]},
    {"smiles": "CN(C)CCC(c1ccccc1)c1ccccn1.O=C(O)/C=C\\C(=O)O", "note": "(stereo not given) (library stock concentration (final ~1000-fold dilution): 10 mM)", "values": [
      {"measurement": "IRF Lucia reporter activity", "setting": "RAW-Dual [3]; [4]", "value": 1.11},
      {"measurement": "IRF Lucia reporter activity", "setting": "RAW-Dual [3]; agonist: LPS (TLR4) 0.1 ug/mL", "value": 1.34}
    ]},
    {"smiles": "CN(C)CCC(c1ccccc1)c1ccccn1.O=C(O)/C=C\\C(=O)O", "note": "(stereo not given)", "values": [
      {"measurement": "IRF Lucia reporter activity", "setting": "RAW-Dual [2]; [6]", "value": 1.17}
    ]},
    {"smiles": "Nc1nc(=O)n(C2CSC(CO)O2)cc1F", "note": "(stereo not given) (library stock concentration (final ~1000-fold dilution): 10 mM)", "values": [
      {"measurement": "IRF Lucia reporter activity", "setting": "RAW-Dual [3]; [4]", "value": 1.04},
      {"measurement": "IRF Lucia reporter activity", "setting": "RAW-Dual [3]; agonist: LPS (TLR4) 0.1 ug/mL", "value": 0.992}
    ]},
    {"smiles": "Nc1nc(=O)n(C2CSC(CO)O2)cc1F", "note": "(stereo not given)", "values": [
      {"measurement": "IRF Lucia reporter activity", "setting": "RAW-Dual [2]; [6]", "value": 1.01}
    ]},
    {"smiles": "Cc1ccc(NS(=O)(=O)c2ccc3c(c2)C2C=CCC2C(c2ccc(C(=O)O)cc2)N3)cc1C", "note": "(stereo not given) (library stock concentration (final ~1000-fold dilution): 10 mM)", "values": [
      {"measurement": "IRF Lucia reporter activity", "setting": "RAW-Dual [3]; [4]", "value": 0.408},
      {"measurement": "IRF Lucia reporter activity", "setting": "RAW-Dual [3]; agonist: LPS (TLR4) 0.1 ug/mL", "value": 0.462}
    ]},
    {"smiles": "O=c1cc(-c2ccc(O)cc2)oc2cc(O)c([C@@H]3O[C@H](CO)[C@@H](O)[C@H](O)[C@H]3O)c(O)c12", "note": "(library stock concentration (final ~1000-fold dilution): 10 mM)", "values": [
      {"measurement": "IRF Lucia reporter activity", "setting": "RAW-Dual [3]; [4]", "value": 0.797},
      {"measurement": "IRF Lucia reporter activity", "setting": "RAW-Dual [3]; agonist: LPS (TLR4) 0.1 ug/mL", "value": 1.06}
    ]},
    {"smiles": "Cc1cc2c(cc1S(N)(=O)=O)S(=O)(=O)CCC2", "values": [
      {"measurement": "IRF Lucia reporter activity", "setting": "RAW-Dual [2]; [6]", "value": 1.1}
    ]},
    {"smiles": "Cc1cc2c(cc1S(N)(=O)=O)S(=O)(=O)CCC2", "note": "(library stock concentration (final ~1000-fold dilution): 10 mM)", "values": [
      {"measurement": "IRF Lucia reporter activity", "setting": "RAW-Dual [3]; [4]", "value": 1.08},
      {"measurement": "IRF Lucia reporter activity", "setting": "RAW-Dual [3]; agonist: LPS (TLR4) 0.1 ug/mL", "value": 1.01}
    ]},
    {"smiles": "COc1cc(-c2cn(C)c(=O)c3cnccc23)c(OC)cc1CN(C)C", "note": "(library stock concentration (final ~1000-fold dilution): 2 mM)", "values": [
      {"measurement": "IRF Lucia reporter activity", "setting": "RAW-Dual [3]; [4]", "value": 1.05},
      {"measurement": "IRF Lucia reporter activity", "setting": "RAW-Dual [3]; agonist: LPS (TLR4) 0.1 ug/mL", "value": 0.827}
    ]},
    {"smiles": "Cc1cc(C(=O)NOCCO)c(Nc2ccc(I)cc2F)n(C)c1=O", "note": "(library stock concentration (final ~1000-fold dilution): 10 mM)", "values": [
      {"measurement": "IRF Lucia reporter activity", "setting": "RAW-Dual [3]; [4]", "value": 0.824},
      {"measurement": "IRF Lucia reporter activity", "setting": "RAW-Dual [3]; agonist: LPS (TLR4) 0.1 ug/mL", "value": 2.13}
    ]},
    {"smiles": "Cc1cc(C(=O)NOCCO)c(Nc2ccc(I)cc2F)n(C)c1=O", "values": [
      {"measurement": "IRF Lucia reporter activity", "setting": "RAW-Dual [2]; [6]", "value": 2.81}
    ]},
    {"smiles": "Cc1nc(Nc2cnn(C3CCNCC3)c2)nc2c1N(C)C(=O)c1cc3ccccc3cc1N2C", "values": [
      {"measurement": "IRF Lucia reporter activity", "setting": "RAW-Dual [2]; [5]", "value": 3.71}
    ]}
  ]
}
